# PubChem BioAssay (NCATS)
# Values joined by “and” are separate entries in the source; they are usually repeats but may differ in a detail not shown here. Equal values may be shown once. The inconclusive results got no clear call from the source; some entries with a clear call stand among them for comparison. For part of these data: Potencies beside an inconclusive call are fits to weak or partial responses and may not hold up. For part of these data: “Side channel” marks fits to a control or component signal instead of the main read-out. Active and inactive are the calls of the source. Unless noted, calls follow the shape of the dose curve; as a rule, active = well fitted curve in the direction sought with a large enough effect; inconclusive = small, poorly fitted or top-dose-only effect, or another doubt; inactive = no such curve, though single readings can be large; an effect the other way counts as inactive or inconclusive.
# Experiments:
# [1] = qHTS assay for small molecule activators of the nuclear factor-kappa B (NF-kB) signaling pathway (AID 651749; active = well fitted activation curve with a large enough effect in the signal ratio; inconclusive = small, poorly fitted or top-dose-only effect, or a change in a side signal; the % refers to the signal ratio; also: potency is read from the fitted curve at half-maximal effect); conditions: NF-kB-bla ME-180 cells, beta-lactamase FRET ratio, 16 h; activation: stronger effect = higher value
# Method in brief: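 ME-180 cells stably carrying a beta-lactamase reporter under an NF-kB response element were exposed to compound or DMSO vehicle for 16 hr at 37C, 5% CO2. Pathway activation was read by FRET, since reporter expression disrupts FRET.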
# [2] = qHTS assay to identify small molecules that stimulate interleukin-8 (IL-8) secretion (AID 651758; active = well fitted activation curve with a large enough effect in the signal ratio; inconclusive = small, poorly fitted or top-dose-only effect, or effect the other way, or a change in a side signal; the % refers to the signal ratio; also: potency is read from the fitted curve at half-maximal effect; as to activation: 0% is about no effect); conditions: HTRF ratio (665/615); activation: at 92.2 µM (top of the series)
# Method in brief: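 THP-1, 2000 cells/well; cpd 16 h, 37 C; add cryptate + XL665 anti-IL-8 Abs; RT 1-3 h; TR-FRET read.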
# [3] = qHTS assay for small molecule disruptors of the mitochondrial membrane potential - 1 hr assay (AID 651754; calls by dose curve; also: % is scaled to controls: 0 for no effect and ±100 for the full control effect; nearly all actives have a fitted effect of over 35% in size); conditions: ratio change, negative = depolarisation: at 92.2 µM (top of the series)
# Method in brief: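 HepG2 cells, attached overnight at 37C, were exposed to compound or DMSO vehicle for 1 hr at 37C, 5% CO2, then stained with Mito-MPS dye for 30 min. Red aggregate versus green monomer fluorescence reports membrane potential.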
# [4] = target: Nuclear receptor ROR-gamma (Homo sapiens) (UniProt P51449); assay: qHTS assay for small molecule antagonists of the retinoid-related orphan receptor gamma (ROR-gamma) signaling pathway (AID 651802); conditions: ROR-gamma antagonist cell reporter assay; series mostly up to 92.2 µM; also: potency is read from the fitted curve at half-maximal effect; nearly all actives have a fitted effect of over 60% in size
# Method in brief: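 CHO cells carrying TET-inducible ROR-gamma and an ROR response element–luciferase reporter were exposed to compound, then induced with doxycycline. After 16hr at 37C, luminescence was read; lower signal indicates antagonism.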
# [5] = target: Tyrosine-protein kinase Yes (Homo sapiens) (UniProt P07947); assay: qHTS for small molecule inhibitors of Yes1 kinase: Primary Screen (AID 686947); conditions: Yes1 kinase biochemical qHTS inhibition; series mostly up to 76.9 µM; also: potency is read from the fitted curve at half-maximal effect; nearly all actives have a fitted effect of over 60% in size
# Method in brief: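 ADP-Glo luminescence readout; final 4 nM Yes1, 0.1 mM ATP, 0.3 mg/mL poly(E4Y), Tris pH 7.5, MgCl2, DTT, Brij-35. 20 min compound preincubation, 60 min reaction at RT. Normalized to DMSO wells with and without enzyme.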
# [6] = target: Peroxisome proliferator-activated receptor alpha (Homo sapiens) (UniProt Q07869); assay: qHTS assay for small molecule agonists of the peroxisome proliferator-activated receptor alpha (PPARalpha) signaling pathway (AID 651778); conditions: PathHunter PPARalpha complementation, chemiluminescence, 6 h; max response: stronger effect = higher value; also: potency is read from the fitted curve at half-maximal effect
# Method in brief: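 Cells plated at 2,000/well and held overnight at 37 C, 5% CO2, then compound added by pin tool for 6 hr; after PathHunter detection reagent and 60 min at room temperature, chemiluminescence from enzyme complementation was read.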
# [7] = qHTS assay for small molecule activators of the p53 signaling pathway (AID 651743; active = well fitted activation curve with a large enough effect in the signal ratio, not every such curve was filed as active; inconclusive = small, poorly fitted or top-dose-only effect, or a change in a side signal; the % refers to the signal ratio; also: potency is read from the fitted curve at half-maximal effect); conditions: HCT-116 p53RE-bla, beta-lactamase FRET ratio, 16 h; activation: stronger effect = higher value
# Method in brief: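 p53RE-bla HCT-116 cells with a stably integrated beta-lactamase reporter under p53 response elements were plated, rested 5 hours at 37 C/5% CO2, then exposed to compounds in DMSO for 16 hours at 37 C. LiveBLAzer B/G FRET substrate was read after 2 hours at room temperature.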
# [8] = qHTS assay for small molecule disruptors of the mitochondrial membrane potential - 5 hr assay (AID 651755; calls by dose curve; also: potency is read from the fitted curve at half-maximal effect; nearly all actives have a fitted effect of over 40% in size); conditions: JC-1-type ratio dye; ratio change, negative = disruption: at 92.2 µM (top of the series)
# Method in brief: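 HepG2 cells, attached overnight at 37C, were exposed to compound or DMSO for 5 hr at 37C, 5% CO2. Mito-MPS dye was then added for 30 min, and fluorescence read at 490/535 nm (monomers) and 540/590 nm (aggregates).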
# [9] = target: Tumor necrosis factor (Homo sapiens) (UniProt P01375); assay: qHTS assay to identify small molecules that stimulate Tumor Necrosis Factor-alpha (TNF-alpha) secretion (AID 651757; active = well fitted curve in the direction sought with a large enough effect in the signal ratio; inconclusive = small, poorly fitted or top-dose-only effect, or a change in a side signal; inactive = no such curve, though single readings can be large or run the other way; the % refers to the signal ratio; also: potency is read from the fitted curve at half-maximal effect; as to activation (TNF-alpha secretion): 0% is about no effect); conditions: Human cells, HTRF 665/615 ratio; activation (TNF-alpha secretion): at 92.2 µM (top of the series)
# Method in brief: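 THP-1 cells were exposed to compounds for 17 hrs at 37 C, after which secreted TNF-alpha was measured by homogeneous HTRF (TR-FRET) using cryptate- and XL665-labeled anti-TNF-alpha antibodies, read after 3 hr at room temperature.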
# Tags tell the direction and shape of the fitted curve.
# Chain of UniProt P01375 (P01375 whole entry, looked up): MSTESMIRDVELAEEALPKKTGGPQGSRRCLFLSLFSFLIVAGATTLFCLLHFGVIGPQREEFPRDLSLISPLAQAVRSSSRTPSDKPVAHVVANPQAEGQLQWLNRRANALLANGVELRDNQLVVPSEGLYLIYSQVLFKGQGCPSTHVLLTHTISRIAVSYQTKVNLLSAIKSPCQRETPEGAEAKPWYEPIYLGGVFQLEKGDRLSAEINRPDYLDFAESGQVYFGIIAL
# Chain of UniProt Q07869 (Q07869 whole entry, looked up): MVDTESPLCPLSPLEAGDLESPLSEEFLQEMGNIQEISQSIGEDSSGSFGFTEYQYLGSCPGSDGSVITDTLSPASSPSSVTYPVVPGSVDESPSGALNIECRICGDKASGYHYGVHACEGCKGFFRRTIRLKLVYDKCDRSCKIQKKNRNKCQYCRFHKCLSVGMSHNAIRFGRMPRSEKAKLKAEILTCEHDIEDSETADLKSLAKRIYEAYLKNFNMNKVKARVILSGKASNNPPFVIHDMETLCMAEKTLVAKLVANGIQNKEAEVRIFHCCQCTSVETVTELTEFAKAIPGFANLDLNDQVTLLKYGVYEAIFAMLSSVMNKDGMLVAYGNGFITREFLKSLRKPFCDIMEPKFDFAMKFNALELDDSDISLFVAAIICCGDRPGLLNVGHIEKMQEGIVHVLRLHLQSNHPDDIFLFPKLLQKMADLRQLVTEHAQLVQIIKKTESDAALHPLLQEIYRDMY
# Chain of UniProt P51449 (P51449 whole entry, looked up): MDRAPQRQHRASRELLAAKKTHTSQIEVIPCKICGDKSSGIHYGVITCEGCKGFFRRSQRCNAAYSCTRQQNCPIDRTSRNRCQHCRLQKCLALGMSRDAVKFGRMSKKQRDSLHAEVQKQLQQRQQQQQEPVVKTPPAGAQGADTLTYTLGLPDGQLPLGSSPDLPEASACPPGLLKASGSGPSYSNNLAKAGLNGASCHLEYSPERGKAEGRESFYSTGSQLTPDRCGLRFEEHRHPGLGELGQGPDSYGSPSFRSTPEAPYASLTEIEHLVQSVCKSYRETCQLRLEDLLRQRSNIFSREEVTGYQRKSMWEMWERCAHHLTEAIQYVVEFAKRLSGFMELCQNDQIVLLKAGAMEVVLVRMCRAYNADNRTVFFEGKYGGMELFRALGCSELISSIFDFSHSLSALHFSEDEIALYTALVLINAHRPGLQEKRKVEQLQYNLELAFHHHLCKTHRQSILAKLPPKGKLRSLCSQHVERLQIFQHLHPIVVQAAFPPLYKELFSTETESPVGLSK
# Chain of UniProt P07947 (P07947 whole entry, looked up): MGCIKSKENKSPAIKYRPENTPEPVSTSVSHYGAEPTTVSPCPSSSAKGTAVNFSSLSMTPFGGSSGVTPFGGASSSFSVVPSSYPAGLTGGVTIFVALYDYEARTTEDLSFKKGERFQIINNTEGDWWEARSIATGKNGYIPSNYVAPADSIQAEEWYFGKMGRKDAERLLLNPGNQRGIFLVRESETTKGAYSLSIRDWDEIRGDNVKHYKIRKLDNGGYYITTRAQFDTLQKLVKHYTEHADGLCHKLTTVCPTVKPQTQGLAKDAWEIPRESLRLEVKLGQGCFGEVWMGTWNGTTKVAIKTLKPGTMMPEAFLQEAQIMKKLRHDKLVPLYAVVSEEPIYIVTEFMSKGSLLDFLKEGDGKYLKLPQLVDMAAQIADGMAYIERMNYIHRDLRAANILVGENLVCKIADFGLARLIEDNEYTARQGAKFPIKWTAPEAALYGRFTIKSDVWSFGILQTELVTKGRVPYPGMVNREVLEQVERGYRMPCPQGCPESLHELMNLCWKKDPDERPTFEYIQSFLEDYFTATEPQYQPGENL
compound,measurement,setting,value
CN(C)C(=S)SSC(=S)N(C)C,Potency,[1],"inconclusive: 31.6 µM [side channel, falling, partial curve, poor fit]"
same,Potency,[2],"inconclusive: 75 µM [inhibitor, single point]"
Oc1cccc2cccnc12,Potency,[2],"inconclusive: 59.6 µM [inhibitor, single point] and inactive"
COC(C)(C)CCCC(C)C/C=C/C(C)=C/C(=O)OC(C)C (stereo not given),Potency,[3],inactive
same,activation,[2],inconclusive: 25.6%
C[C@]12CCC(=O)C=C1CC[C@@H]1[C@@H]2CC[C@]2(C)C(=O)CC[C@@H]12,Potency,[2],"inconclusive: 75 µM [activator, single point]"
same,activation,[2],inconclusive: -16.7%
C=CC(=O)NCNC(=O)C=C,Potency,[2],inactive
CCOP(=S)(OCC)Oc1cc(C)nc(C(C)C)n1,activation,[2],inconclusive: 26.6%
CC(C)NC(C)C,activation,[2],inconclusive: -0.881%
CCOC(=O)CC(SP(=S)(OC)OC)C(=O)OCC (stereo not given),Potency,[1],"inconclusive: 31.6 µM [activator, single point]"
same,Potency,[2],"inconclusive: 75 µM [inhibitor, partial curve, poor fit]"
same,Potency,[4],"inconclusive: 0.0531 µM [inhibitor, full curve, poor fit]"
CC(O)(CS(=O)(=O)c1ccc(F)cc1)C(=O)Nc1ccc(C#N)c(C(F)(F)F)c1 (stereo not given),Potency,[5],"inconclusive: 21.8 µM [inhibitor, partial curve, poor fit]"
CCOP(=O)(NC(C)C)Oc1ccc(SC)c(C)c1 (stereo not given),Potency,[2],inactive
CCCCCC[C@H]1C(=O)O[C@H](C)[C@H](NC(=O)c2cccc(NC=O)c2O)C(=O)O[C@@H](C)[C@@H]1OC(=O)CC(C)C,Potency,[6],"inconclusive: 35.5 µM [activator, partial curve]"
C=CCC1=C(C)C(OC(=O)C2C(C=C(C)C)C2(C)C)CC1=O (stereo not given),Potency,[7],"inconclusive: 0.005 µM [side channel, falling, full curve, poor fit]"
same,Potency,[6],"inconclusive: 50.1 µM [activator, single point]"
c1cc2ccc3cccc4ccc(c1)c2c34,Potency,[2],inactive
Nc1ccc(Cl)cc1N,Potency,[8],active: 13.3 µM
same,activation (TNF-alpha secretion),[9],inconclusive: 0.647%
same,activation,[2],inconclusive: 4.33%
Oc1ccc(Cl)cc1,activation,[2],inconclusive: -4.97%
CC(=O)[O][Hg][c]1ccccc1,Potency,[1],"inconclusive: 12.6 µM [side channel, falling, full curve] and inconclusive: 11.2 µM [side channel, falling, full curve]"
same,Potency,[9],"inconclusive: 0.596 µM [activator, single point]"
same,Potency,[2],"inconclusive: 42.2 µM [inhibitor, partial curve, poor fit]"
CN1C[C@H](C(=O)N[C@]2(C)O[C@@]3(O)[C@@H]4CCCN4C(=O)[C@H](Cc4ccccc4)N3C2=O)C=C2c3cccc4[nH]cc(c34)C[C@H]21,Potency,[8],active: 11.9 µM
same,activation (TNF-alpha secretion),[9],inconclusive: 2.95%
same,activation,[2],inconclusive: -12.2%
same,Potency,[4],"inconclusive: 0.0944 µM [inhibitor, full curve, poor fit]"
